Measured values reported in article PMC6919601, “Identification of Plasmodium dipeptidyl aminopeptidase allosteric inhibitors by high throughput screening” (PLoS ONE, 2019).
Screen size: about 110,000 compounds; about 230 (0.21%) showed an effect of 50% or more. This is one part of the list.

molecular target: DPAP1 (Plasmodium falciparum, UniProt Q8IIJ9); assay: primary screen, percent inhibition; read by cleavage of a fluorogenic dipeptide substrate; higher = more effect of the substance; parameters: species or system P. falciparum D10 trophozoite lysates; single well
Sequence (Q8IIJ9 whole entry, looked up): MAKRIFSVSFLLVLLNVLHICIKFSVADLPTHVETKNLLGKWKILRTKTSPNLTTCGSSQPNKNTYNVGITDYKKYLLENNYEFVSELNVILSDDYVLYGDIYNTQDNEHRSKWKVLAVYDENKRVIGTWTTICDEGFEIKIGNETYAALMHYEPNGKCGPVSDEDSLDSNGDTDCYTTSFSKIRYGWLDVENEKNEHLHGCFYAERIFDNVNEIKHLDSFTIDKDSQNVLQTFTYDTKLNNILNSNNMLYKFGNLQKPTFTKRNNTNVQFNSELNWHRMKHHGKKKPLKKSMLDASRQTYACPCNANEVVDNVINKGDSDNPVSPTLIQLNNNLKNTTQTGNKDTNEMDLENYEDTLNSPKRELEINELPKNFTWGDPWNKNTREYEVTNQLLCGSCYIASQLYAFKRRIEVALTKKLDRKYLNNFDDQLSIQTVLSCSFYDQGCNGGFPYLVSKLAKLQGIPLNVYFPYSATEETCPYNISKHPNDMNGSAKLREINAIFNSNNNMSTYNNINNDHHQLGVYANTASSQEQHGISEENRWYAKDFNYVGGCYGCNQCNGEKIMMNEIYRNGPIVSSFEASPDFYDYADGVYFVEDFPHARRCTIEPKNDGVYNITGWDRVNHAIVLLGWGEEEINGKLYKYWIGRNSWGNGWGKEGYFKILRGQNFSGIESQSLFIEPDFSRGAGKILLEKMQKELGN
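Further: 30 min substrate incubation versus DMSO and 10 µM JCP410 controls.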

Row | Compound | % Inhibition @ 10 uM
1 | CCOc1cc(C(=O)Nc2cc(C)c(C)cc2O)cc(OCC)c1OCC | -6.77%
2 | CCOc1ccccc1OCc1nn2c(-c3cccc(Cl)c3)nnc2s1 | 2.89%
3 | CCC(=O)N1C(=O)CCN(C(C)=O)c2ccccc21 | 1.43%
4 | CCOc1cc(/C=C2/NC(=O)N(CC(=O)Nc3cccc(C)c3)C2=O)cc(Cl)c1O | 2.44%
5 | CCOC(=O)c1sc2ncc3cc4ccccc4nc3c2c1N | -5.63%
6 | CCOc1ccc2oc(=O)cc(CN3CCN(C(=O)c4ccc(OC)cc4OC)CC3)c2c1 | -2.84%
7 | Cc1cc(C)nc(SCC(=O)Nc2c(C)n[nH]c2C)n1 | -4.78%
8 | O=C(O)CC1c2ccccc2Oc2ccccc21 | 3.24%
9 | Cc1ccc(N(CC(=O)Nc2ccccc2-c2ccccc2)S(C)(=O)=O)cc1 | -6.65%
10 | COc1cc(C2C3=C(O)CC(C)(C)CC3=Nc3ccccc3N2C(=O)C(C)C)cc(OC)c1OC (stereo not drawn) | 2.76%
11 | CS(=O)(=O)N1CCCC(C(=O)N2CCC3(CC2)OCCO3)C1 (stereo not drawn) | 3.79%
12 | CCN(CC)c1c(S(=O)(=O)c2ccc(C)cc2)cnc2ccc(OC)cc12 | -5.54%
13 | CCOc1cc(C2C(C(=O)OC)=CN(C(C)C)C=C2C(=O)OC)cc(Br)c1O | 0.219%
14 | CCCCN1CN(CCC)CNC1=S | -3.74%
15 | COc1ccc(S(=O)(=O)Nc2ccc(C)c(Cl)c2)cc1 | 2.22%
16 | Cc1ccc(S(=O)(=O)N(CC(=O)Nc2ccc3c(c2)OCCO3)Cc2ccc(Cl)cc2)cc1 | -5.27%
17 | COc1cccc(-c2nc(CS(=O)(=O)CC(=O)NC(C)C34CC5CC(CC(C5)C3)C4)c(C)o2)c1 (stereo not drawn) | -3.7%
18 | CN1CCN(CC(=O)N2CCn3c4c(c5cc(C6CCCCC6)ccc53)CCCC42)CC1 (stereo not drawn) | -1.41%
19 | CCOc1ccc(/N=C2\SC(C(=O)O)CC(=O)N2C)cc1 (stereo not drawn) | -10.7%
20 | Nc1cc(N)c2c(c1)C(=O)c1ccccc1C2=O | -0.771%
21 | C/C(=C\c1ccccc1)c1nnc2[nH]c(=O)n(C)c(=O)c2n1 | -6.5%

Row | Compound | % Inhibition @ 10 uM
22 | COC(=O)c1ccc(Cn2nc(-c3cc(C)ccc3C)ccc2=O)cc1 | -1.16%
23 | CCN(Cc1ccccc1)C(=O)CSc1nncn2c1cc1sccc12 | -13.7%
24 | O=[N+]([O-])c1ccc(N2CCN(Cc3ccccc3F)CC2)cc1 | 3.16%
25 | O=C(Nc1nccs1)c1cc(S(=O)(=O)N2CCOCC2)c(Cl)cc1Cl | 2.7%
26 | O=C(CSc1nnc(-c2ccc(Cl)cc2)o1)Nc1nccs1 | 2.97%
27 | CCOC(=O)c1cnc(-c2ccccc2O)nc1Cl | -3.21%
28 | OCCn1c(-c2ccc(Cl)cc2)cs/c1=N\c1ccccc1 | 2.69%
29 | CCc1cccc(C)c1-n1cccc1/C=C1\C(=N)N2N=CSC2=NC1=O | -5.22%
30 | O=C(O)CCC(=O)N1N=C(c2ccccc2)CC1c1ccccc1Cl (stereo not drawn) | 4.67%
31 | COc1ccc(CCNC(=O)Cn2ncn3c(cc4cc(F)ccc43)c2=O)cc1OC | 4.84%
32 | Cc1ccc(-n2nc(C)c3c(C)cc(=O)n(CC(=O)NCc4ccco4)c32)cc1 | 0.0575%
33 | COc1ccc(CN2CCC(N3CCCCC3)CC2)cc1OCc1ccccc1 | -6.6%
34 | CCOC(=O)N1CCC(N2C(=O)c3ccccc3C2Nc2ccc(Cl)cn2)CC1 (stereo not drawn) | -2.83%
35 | COCCNC(=O)c1cc(-c2ccc(OC)c(OC)c2)on1 | 9.67%
36 | O=C(Cn1ccc2cc(S(=O)(=O)N3CCCC3)ccc21)NCC1CCCO1 (stereo not drawn) | 0.00226%
37 | COc1ccc(CCNCc2c[nH]c3ccccc23)cc1 | -3.67%
38 | COc1ccc(Br)cc1S(=O)(=O)Nc1cccc(-c2cn3ccsc3n2)c1 | 6.29%
39 | Cc1ccc(NC(=O)c2ccc(CSc3ncnc4[nH]cnc34)cc2)cc1 | -6.43%
40 | CCOC(=O)C1=CN(C)C=C(C(=O)OCC)C1c1ccc2c(c1)OCO2 | -3.23%
41 | CCCOc1ccccc1C1C2=C(O)CC(c3ccc4c(c3)OCO4)CC2=NC(C)=C1C(=O)OC (stereo not drawn) | 2.7%
42 | Cn1c(=O)n(C)c2cc(/C=C3/SC(=O)N(CC(=O)Nc4cccc(Cl)c4)C3=O)ccc21 | 14.3%

Row | Compound | % Inhibition @ 10 uM
43 | CC(=O)NCCc1nc2ccccc2n1Cc1ccc(C(C)C)cc1 | 1.12%
44 | COc1ccc(-n2nc3c(c2NC(=O)c2cc(C)cc(C)c2)CS(=O)(=O)C3)cc1 | 5.9%
45 | O=C(C1=C(O)C(=O)N(Cc2cccnc2)C1c1cccnc1)c1ccco1 (stereo not drawn) | 4.11%
46 | CCc1ccc(C2CC(=O)N=C(NC(=O)c3ccc(Oc4ccccc4)cc3)N2)cc1 (stereo not drawn) | 0.723%
47 | N=C(NOC(=O)c1ccc2c(c1)OCO2)c1ccncc1 | -9.83%
48 | CCc1ccc(-n2nc3ccc(N)cc3n2)cc1 | 2.38%
49 | Cc1onc(-c2ccccc2Cl)c1C(=O)Nc1ccc(F)cc1 | -5.85%
50 | CCCCc1ccc(-c2ccc(Br)cc2O)nc1 | -0.807%
51 | CN(Cc1ccc([N+](=O)[O-])cc1)C1CCCCC1 | -1.78%
52 | CCOC(=O)N1CCN(C(=O)CSc2nc(-c3ccc(C)cc3)cn2-c2ccc(OC)cc2)CC1 | 77.3%
53 | CCOc1cc(C(=O)Nc2ccncc2)cc(OCC)c1OCC | 4.12%
54 | Cc1cc(Br)ccc1OCC(=O)Nc1ccc(S(N)(=O)=O)cc1 | -6.08%
55 | CCCOc1ccc(-c2nonc2NC(=O)C(C)Oc2ccccc2OC)cc1OCCC (stereo not drawn) | -3.24%
56 | Cc1cc(NCc2ccccc2)nc2cc(O)ccc12 | 2.34%
57 | CC(C)CCNC(=O)C1CCCN(S(=O)(=O)N2CCOCC2)C1 (stereo not drawn) | 0.745%
58 | CC(C)CSC1=NSC2=NC(=O)/C(=C\c3ccc[nH]3)C(=N)N12 | 2.59%
59 | N#Cc1ccccc1Sc1ccccc1C(=O)N1CCOCC1 | 0.392%
60 | Cc1ccc(N)cc1S(=O)(=O)NCCO | -8.03%
61 | O=C1c2ccccc2C(Nc2ccc(Cl)cn2)N1c1ccccn1 (stereo not drawn) | -1.03%
62 | O=C1OC(c2ccc(Br)cc2)=N/C1=C\c1c(F)cccc1Cl | -0.441%
63 | O=C(COc1ccc(Cl)cc1)Nc1nc(-c2ccccc2)cs1 | 3.55%
